About 800 (1.6%) of roughly 50,000 compounds showed an effect of 50% or more. The list shows a part of the results.
Molecular target: Bcl-2-like protein 10 (Homo sapiens) (UniProt Q9HD36)
Test: TR3 peptide-Bcl-B binding displacers, biochemical primary FP assay, phenotype converters (AID 1240);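 also: 0% = Bcl-B with tracer peptide and DMSO and 100% = tracer peptide lacking Bcl-B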
Settings: GST-Bcl-B / FITC-TR3 peptide fluorescence polarization; stronger effect = higher value; compound at 3.75 mg/L

Chain of UniProt Q9HD36 (Q9HD36 whole entry, looked up): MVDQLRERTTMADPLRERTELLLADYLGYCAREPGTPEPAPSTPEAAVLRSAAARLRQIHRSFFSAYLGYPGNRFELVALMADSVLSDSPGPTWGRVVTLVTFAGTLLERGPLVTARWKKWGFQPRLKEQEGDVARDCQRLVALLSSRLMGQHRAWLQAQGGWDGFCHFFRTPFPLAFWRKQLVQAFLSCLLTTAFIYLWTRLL

SMILES | displacement
CCOC(=O)C1=C(C)N=c2s/c(=C\c3cccc(O)c3)c(=O)n2C1c1cccc(OC)c1 (centres undefined) | 41.3%
Cn1c(NC(=O)c2ccc(Cl)cc2[N+](=O)[O-])cc(=O)n(C)c1=O | -6.6%
Cn1ccnc1SCC(=O)c1ccc(Cl)cc1 | 14.7%
NS(=O)(=O)c1ccc(NC(=O)c2cncc(Br)c2)cc1 | -7.5%
CCCCN1C2=NCCCN2c2ccccc21 | 4.2%
CC1(C)c2ssc(=S)c2-c2ccccc2N1C(=O)CN1CCCCC1 | 8.8%
COc1cccc(NC(=O)c2ccco2)c1 | 2.2%
CCCOc1cccc(C(=O)Nc2ccc(NC(=O)c3ccco3)c(OC)c2)c1 | 4.4%
CCc1cccc(NC(=O)Cc2ccccc2)c1 | -3.1%
Cc1cc(/C=C2/SC(=O)NC2=O)c(C)n1-c1ccc(C(C)(C)C)cc1 | 16%
Cc1ccc(C(=O)NN(c2ccccc2)c2ccccc2)cc1[N+](=O)[O-] | -3.2%
CCCCc1c(C)nc2c(C)cccc2c1SCC(=O)O | -8.1%
COc1cc(OC)cc(C(=O)Nc2cc(C)ccc2C)c1 | 13.6%
Cc1sc(NS(=O)(=O)c2ccc([N+](=O)[O-])cc2)nc1-c1ccc(Br)cc1 | -2.7%
CCOC(=O)c1ccc(NC(=O)CN(c2ccc(Oc3ccccc3)cc2)S(C)(=O)=O)cc1 | -2.7%
CCc1ccc(OCC(=O)Nc2ccc(-c3nc4ccccc4o3)c(O)c2)cc1 | 0.8%
COC(=O)c1ccc(/C=N/NC(=O)CSc2nnc(-c3ccccc3)n2-c2ccccc2)cc1 | 13.8%
Cc1ccc(C(=O)CSc2nc3ccccc3c(=O)[nH]2)cc1C | 7.8%
COc1ccccc1OCCCOc1ccc(C)c(C)c1 | 12.7%
CCC(=NCc1ccco1)c1c(C(F)(F)F)[nH]n(-c2nc3ccccc3s2)c1=O | -5.1%
Cc1cc(C)nc(SCC(=O)Oc2ccc3c(C)cc(=O)oc3c2)n1 | 6.8%
COc1ccc(CCNC(=O)c2cccc([N+](=O)[O-])c2C)cc1OC | 5.7%
Cc1cc(OCC(=O)ONC(=O)c2ccc(Cl)cc2)ccc1Br | 7.4%

SMILES | displacement
CCOc1cccc(/C=N/NC(=O)CSc2nc3ccccc3n2Cc2ccccc2)c1O | -5.3%
O=C(O)c1ccc(CSc2nc3ccc(N4C(=O)C5CCCCC5C4=O)cc3s2)cc1 (centres undefined) | 1.3%
CCOc1ccccc1N(CC(=O)Nc1ccccc1)S(=O)(=O)c1ccccc1 | -7.7%
Cc1ccc(C23CC4CC(CC(O)(C4)C2)C3)cc1N=Cc1cc(Br)ccc1O | -3.8%
O=C(Cc1ccccc1)N1N=C(c2ccc([N+](=O)[O-])cc2)CC1(O)C(F)(F)F (centres undefined) | 3.5%
O=C(Nc1cccc2c(NC(=O)c3ccco3)cccc12)c1ccco1 | 8.3%
Cc1ccc(OCC(=O)Nc2cc([N+](=O)[O-])ccc2C)c(C)c1 | 5.9%
O=C(Nc1ccc(Cl)cc1)c1cccc(S(=O)(=O)N2CCCCC2)c1 | -7.6%
O=C(CSc1nnnn1-c1ccccc1)Nc1nncs1 | 3.2%
CCN(CC)C(=O)c1sc(NC(=O)c2cc(Cl)ccc2Cl)c(C#N)c1C | 1.9%
CC(C)Oc1ccc(NC(=O)CSc2nnnn2-c2ccccc2)cc1 | -8%
CC(=O)Oc1c(Cl)c(Cl)c(OC(C)=O)c2ccccc12 | 7.5%
CCc1c(O)nc(SCC(=O)Nc2cccc3ccccc23)[nH]c1=O | 0.7%
Cc1ccc2oc(-c3ccc(Cl)c(NC(=O)c4ccc([N+](=O)[O-])o4)c3)nc2c1 | 12.2%
CCOC(=O)C(=CNc1ccc(Br)cc1)C(=O)OCC | 3.9%
CN(C)c1ccc(/C=C(/C#N)C(=O)Nc2cccc(Br)c2)cc1 | 53.8%
Cc1c(C(=O)Nc2ccc3oc(-c4cccnc4)nc3c2)oc2ccccc12 | 35%
O=C(O)CN1C(=O)/C(=C\c2cccc(Oc3ccccc3)c2)SC1=S | -1%
Cc1ccc(OCc2nnc(NC(=O)Nc3cccc(Cl)c3)s2)cc1C | 14.2%
Cc1ccc(S(=O)(=O)N=C2C=C(C(C)C)C(=O)C(C(C)C)=C2)cc1 | -7.8%
COc1ccc(/C=C/C(=O)NC(=S)Nc2ccccc2)cc1OC | -6.8%
COc1ccc(CC(=O)Nc2ccccc2C(=O)NCC(C)C)cc1 | 10.8%
CCSCCOC(=O)C1=C(C)NC(=O)NC1c1cccc(Br)c1 (centres undefined) | 1.3%

SMILES | displacement
C=C(C)CNC(=S)NNC(=O)CCn1c2ccccc2c2ccccc21 | -11.3%
Cc1cc(C)c(S(=O)(=O)Nc2cc(C(F)(F)F)ccc2Cl)c(C)c1 | -2.8%
Cc1ccc(C(=O)Nc2cccc3nsnc23)cc1 | -1%
COc1ccc(OCC(=O)Nc2ccc(OC)cc2OC)cc1 | -5%
O=C1OC(c2cccs2)=N/C1=C\c1cccc(Cl)c1Cl | 29.5%
CNc1nc(NC)nc(-n2c(C(F)(F)F)nc3ccccc32)n1 | 11.9%
CC(C)NC(=O)c1ccc(CN2CCN(c3ccccc3)CC2)cc1 | -3.3%
Cc1ccc(NC(=O)C2CC=CCC2C(=O)OCC(Cl)=C(Cl)Cl)cc1 (centres undefined) | 2.2%
COc1cc([N+](=O)[O-])cc2c1N=C(c1ccc(Br)cc1)NO2 | 4.3%
CC(=O)C1=C(O)CC(C)(C)CC1=Nc1ccccc1O | -18.6%
COCCOC(=O)c1c(C)oc2ccc(OCC(=O)c3ccccc3)cc12 | 6.1%
Cc1ccc(S(=O)(=O)N2CCCC2)cc1 | 1.6%
COc1ccc(-c2nnc(NC(=O)c3ccc(F)cc3)s2)cc1OC | 10%
O=C1CCC([N+](=O)[O-])C(c2ccc3c(c2)OCO3)N1 (centres undefined) | 1.1%
N#Cc1c(/N=C/c2cc([N+](=O)[O-])c(N3CCOCC3)cc2N2CCOCC2)sc2c1CCCC2 | 14.5%
CCOC(=O)Cc1csc(NC(=O)COc2ccc(-c3ccccc3)cc2)n1 | 15.5%
Fc1cccc(Cl)c1Cc1noc(-c2ccc(Br)cc2)n1 | 13.6%
O=c1c(-c2ccc(Cl)cc2)coc2c(CN3CCCCCC3)c(O)ccc12 | -12%
COc1cccc(/C=C2\SC(=S)N(NC(=O)c3cccc([N+](=O)[O-])c3)C2=O)c1 | -14.5%
COC(=O)c1ccc(OCC(O)Cn2c3ccccc3c3ccccc32)cc1 (centres undefined) | -29.4%
COc1ccccc1CN1CCN(S(=O)(=O)c2ccccc2)CC1 | -4.5%
COc1cc(/C=C/C(=O)c2c(C)cc(C)[nH]c2=O)cc(OC)c1OC | 8.5%
O=C(CSc1nnc(-c2cccc(F)c2)n1-c1ccccc1)Nc1ccccc1 | -13.8%

Reference: PubChem BioAssay AID1240 (Sanford-Burnham Center for Chemical Genomics, 2008)
